This is an account of results in PubChem BioAssay AID1745853 (National Center for Advancing Translational Sciences (NCATS), 2022).

“And” between values parts separate entries of the source, which are not always exact repeats. Equal entries are not always repeated. The list shows a part of the results. These are further read-outs of the screen, such as a control signal, another cell line or another target. No call is given for them.

Assay in all cases: Primary Screen for Target Class Profiling of Small Molecule Inhibitors of Methyltransferases
Assay [1] concerns the target Glycine N-methyltransferase (Homo sapiens) (UniProt Q14749). The settings on record: purified enzyme, MTase-Glo SAH luminescence; measured here: GNMT inhibition; at 40 µM; stronger effect = lower value. Summed up: (§1)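 Each enzyme was assayed with SAM and its substrate. SAH formation detected by MTase-Glo luminescence; single-point 40 uM screen[…].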
The target of assay [2] is Guanidinoacetate N-methyltransferase (Homo sapiens) (UniProt Q14353). The settings on record: purified enzyme, MTase-Glo SAH luminescence; measured here: GAMT inhibition; at 40 µM; stronger effect = lower value. Summed up: as §1
Assay [3] addresses Histamine N-methyltransferase (Homo sapiens) (UniProt P50135). The settings on record: purified enzyme, MTase-Glo SAH luminescence; measured here: HNMT inhibition; at 40 µM; stronger effect = lower value. The essentials:
as §1

Assay [4] concerns the target Nicotinamide N-methyltransferase (Homo sapiens) (UniProt P40261). The settings on record: purified enzyme, MTase-Glo SAH luminescence; measured here: NNMT inhibition; at 40 µM; stronger effect = lower value. Summed up: as §1
Assay [5] deals with Phenylethanolamine N-methyltransferase (Homo sapiens) (UniProt P11086). The conditions noted are these: purified enzyme, MTase-Glo SAH luminescence; measured here: PNMT inhibition; at 40 µM; stronger effect = lower value. The essentials:
as §1
On the % scale 0 is the no-effect control and ±100 the full control effect.

Regarding `CC1=C2C3OC(=O)C(C)C3(O)CCC2(C)CCC1=O` (centres undefined), the activity change, negative = inhibition in assay [1] is 0.806%; in assay [2] it was 0.789%; in assay [3], 6.3%; in assay [4] it was -12.8%; in assay [5], 4.11%.
The corresponding values for `O=C(O)CCc1cccc(O)c1O[C@@H]1O[C@H](CO)[C@@H](O)[C@H](O)[C@H]1O` are 0.61%, 4.48%, 5.95%, -10.8% and 2.42%.
The corresponding values for `COc1ccc(C(=O)Cn2nc3n(CCC(C)C)c(=O)c4ccc(C(=O)NC(C)C)cc4n3c2=O)cc1` are 6.75%, 0%, -0.813%, 6.41% and 6.32%.
The corresponding values for `CC(C)CCNC(=O)CCn1ccc2cc(S(=O)(=O)N3CCCCC3)ccc21` are 6.19%, 5.54%, 7.97%, 5.86% and 3.87%.
On to `CNCCN(C)Cc1cn[nH]c1-c1ccc(OC2CC(OCCC3CCOCC3)C2)cc1` (centres undefined), for which the activity change, negative = inhibition is -1.2% in assay [1], -53% in assay [3], 4.29% in assay [4] and 23.5% in assay [5].
On to `OC[C@H]1O[C@@H](Oc2cc(O)c3c(c2)O[C@@H](c2ccc(O)cc2)[C@H](O)C3)[C@H](O)[C@@H](O)[C@@H]1O`, for which the activity change, negative = inhibition was 5.87% in assay [1]; 7.64% in assay [2]; 11.3% in assay [3]; -6.08% in assay [4]; 6.27% in assay [5].
Regarding `COc1ccc(Cl)cc1N1C(=O)CSc2c(c3ccccc3n2C)C1C(=O)NCc1ccc(F)cc1` (centres undefined), the activity change, negative = inhibition is -1.35% in assay [1]; 0% in assay [2]; 6.3% in assay [3]; 4.38% in assay [4]; 3.38% in assay [5].
Taken in the same sequence, the figures for `COc1ccccc1CNC(=O)c1cc2n(n1)CC(C)(C(=O)NCc1ccccc1)N(C)C2=O` (centres undefined) were 1.01%, 2.49%, -1.58%, 0.877% and -2.46%.
As for `COc1cccc(CN2C(=O)c3ccc(-c4ccco4)n3CC2(C)C(=O)NC2CCCCCCC2)c1` (centres undefined), the activity change, negative = inhibition in assay [1] is -9.55%; in assay [2], -4.57%; in assay [3], 2.63%; in assay [4], -22.4%; in assay [5], -6.01%.
The corresponding values for `CC(C)CCNC(=O)c1cc2n(n1)CC(C)(C(=O)NCCC(C)C)N(C)C2=O` (centres undefined) are 1.14%, 0%, 4%, -2.96% and 1.48%.
Taken in the same sequence, the figures for `COc1ccc(CNC(=O)C2=NO[C@@H]3CN(c4ccccn4)C[C@H]23)cc1OC` were -16.5%, -4.79%, -3.05%, -19.3% and 8.04%.
Taken in the same sequence, the figures for `CC(C)c1ccc(-c2cc3n(n2)CC(C)(C(=O)NC2CCCCC2)N(CCN(C)C)C3=O)cc1` (centres undefined) were 1.22%, 0.714%, 1.4%, 10.3% and 3.78%.
On to `c1ccc(CN2CCc3c(sc4ncnc(N5CCOCC5)c34)C2)cc1`, for which the activity change, negative = inhibition in assay [1] is -14.8%; in assay [2], -5.18%; in assay [3] it was -13.9%; in assay [4], -55.7%; in assay [5], -25.9%.
In the case of `Cn1ccnc1-c1cn(Cc2ccccc2Cn2cccn2)nn1`, the activity change, negative = inhibition is -2.87% in assay [1]; -1.38% in assay [2]; -6.19% in assay [3]; -6.81% in assay [4]; -6.06% in assay [5].
Taken in the same sequence, the figures for `CCOCCCNC(=O)C1c2c(n(C)c3ccccc23)SCC(=O)N1Cc1ccco1` (centres undefined) were 6.78%, 0%, 0.449%, 6.07% and 6.91%.
The corresponding values for `CCC(C)NC(=O)c1ccc2c(=O)n(CC(C)C)c3nn(Cc4c(F)cccc4Cl)c(=O)n3c2c1` (centres undefined) are 0.653%, 6.01%, 2.64%, 3.54% and 0.679%.
As for `CN1CC(O)CN([S+](=O)([O-])c2cccs2)CC1=O` (centres undefined), the activity change, negative = inhibition in assay [1] amounted to 0.396%; in assay [2] it was 1.71%; in assay [3], 2.5%; in assay [4], 1.56%; in assay [5] it was 0.625%.
In the case of `CCC1C(=O)OCC1Cc1cncn1C` (centres undefined), the activity change, negative = inhibition in assay [1] is -7.94% and -11.9%; in assay [2], 2.25% and -0.352%; in assay [3], -1.63% and -4.91%; in assay [4], -6.85% and -5.14%; in assay [5], 6.68% and 4.25%.
Consider `COc1ncccc1Nc1cnc2ccc(N3CCOCC3)nn12`, for which the activity change, negative = inhibition in assay [1] is -19.8%; in assay [2], -20.5%; in assay [3] it was -26.9%; in assay [4], -22.6%; in assay [5], -25.5%.
On to `CC(=O)Nc1ccc(-c2nnc3n(CCc4ccccc4)c(=O)c4ccccc4n23)cc1`, for which the activity change, negative = inhibition in assay [1] is -11%; in assay [2], -2.2%; in assay [3], -7.05%; in assay [4] it was -4.82%; in assay [5], -8.15%.
Taken in the same sequence, the figures for `OC[C@@H]1CN(Cc2ccco2)C[C@H]1c1ccccn1` were -3.1%, 0.04%, -0.463%, 2.68% and 2.05%.
Taken in the same sequence, the figures for `O=C(/C=C/c1ccc(O)c(O)c1)O[C@@H]1[C@@H](O)[C@H](OC2CCCCC2O)O[C@H](CO)[C@H]1O` (some centres undefined) were -0.34%, -4.19%, -3.19%, -14.1% and 0.54%.
With `O=C(NC1CCCC1)C1c2ccccc2CC(=O)N1Cc1ccccc1` (centres undefined), the activity change, negative = inhibition in assay [1] is -2.27%; in assay [2], -1.48%; in assay [3], -0.828%; in assay [4] it was -6.17%; in assay [5] it was 2.19%.
Taken in the same sequence, the figures for `CCCCN1C(=O)c2cc(C(=O)Nc3c(C)cccc3CC)nn2CC1(C)C(=O)NC1CCCC1` (centres undefined) were 2.98%, 0.609%, -4.92%, 1.96% and 2.78%.
Taken in the same sequence, the figures for `COc1ccccc1CNC(=O)C1CN(C(C)C)C(=O)N1` (centres undefined) were -0.793%, -0.609%, 1.45%, -0.901% and 1.23%.
The corresponding values for `COc1ccccc1-c1cccc(C(=O)N2CCN(C(=O)c3ccc(F)cc3)CC2)c1` are -6.71%, -3.98%, -0.718%, -14.4% and 0.866%.
For the molecule `Cc1csc(NC(=O)c2ccc(COc3cccc(Cl)c3)o2)n1`, the activity change, negative = inhibition in assay [1] is -4.46%; in assay [2], 4.08%; in assay [3], 11%; in assay [4] it was -15%; in assay [5], -2.14%.
The corresponding values for `NC(=O)c1ncn([C@@H]2O[C@H](CO)[C@@H](O)[C@H]2O)c1O` are 7.43%, 11.5%, 8.24%, -3.99% and 4.06%.
The corresponding values for `CO[C@H]1C=CO[C@@]2(C)Oc3c(C)c(O)c4c(O)c(c5c(c4c3C2=O)NC2(CCN(CC(C)C)CC2)N=5)=NC(=O)C(C)=CC=C[C@H](C)[C@H](O)[C@@H](C)[C@@H](O)[C@@H](C)[C@H](OC(C)=O)[C@H]1C` are -9.63%, 9.71%, -8.08%, -10.5% and -3.69%.
The corresponding values for `COc1ccc(C2(C(=O)N3CCCCCC3c3nc(-c4cccnc4)no3)CC2)cc1` (centres undefined) are -0.915%, 2.46%, 3.2%, -2.27% and 2.23%.
`CCOc1ccccc1CNC(=O)c1cc2n(n1)CC(C)(C(=O)NCCC(C)C)N(C)C2=O` (centres undefined): the activity change, negative = inhibition in assay [1] is 3.46%; in assay [2] it was 0.084%; in assay [3], 4.43%; in assay [4], 5.52%; in assay [5], 2.97%.
For `O=C(O)c1ccc(CN2CCC[C@H]2c2nc(-c3ccc(OC4CCCCC4)nc3)no2)cc1`, the activity change, negative = inhibition in assay [1] was -5.96%; in assay [2] it was -2.39%; in assay [3], -0.806%; in assay [4], -6.16%; in assay [5] it was -0.387%.
Take `CCCN1C(=O)c2c(C(=O)NCCc3ccc(Cl)cc3)ncn2CC1(C)C(=O)NCCC(C)C` (centres undefined): the activity change, negative = inhibition in assay [1] is 1.36%; in assay [2] it was 0.38%; in assay [3] it was 1.48%; in assay [4], -1.06%; in assay [5], 6.29%.
Take `COc1ccc(-c2cc3n(n2)CC(C)(C(=O)NC2CCCCC2)N(Cc2ccccn2)C3=O)cc1` (centres undefined): the activity change, negative = inhibition in assay [1] was -0.644%; in assay [2] it was 4.91%; in assay [3], -1.43%; in assay [4], 2.78%; in assay [5] it was -0.489%.
Taken in the same sequence, the figures for `O=C1Nc2ccccc2CC12CCN2Cc1ccc(OC(F)(F)F)cc1` (centres undefined) were -7.81%, -7.23%, -6.82%, -16.9% and -15.4%.
The corresponding values for `Cc1ccc2c(n1)N(C)[C@H](CO)CCN(Cc1cccc(Cl)c1)C2` are -4.11%, -0.795%, -5.74%, -6.71% and 2.45%.
Taken in the same sequence, the figures for `Cc1noc(CN2C[C@H](NC(=O)CNS(C)(=O)=O)[C@@H](C3CC3)C2)n1` were -2.09%, -4.45%, -0.438%, -3.91% and 1.13%.
`COc1ccc(CN2C(=O)c3cc(-c4ccco4)nn3CC2(C)C(=O)NC2CCCCCC2)cc1` (centres undefined): the activity change, negative = inhibition in assay [1] amounted to 3.51%; in assay [2], 1.83%; in assay [3], 9.55%; in assay [4], 4.35%; in assay [5], 2.23%.
